Results as given in PubChem BioAssay AID485313 (National Center for Advancing Translational Sciences (NCATS), 2010).
Among all 320,000 compounds or so, about 7,600 (2.4%) were called active. The inconclusive results got no clear call from the source; some entries with a clear call stand among them for comparison. Calls follow the shape of the dose curve; as a rule, active = well fitted activation curve with a large enough effect; inconclusive = small, poorly fitted or top-dose-only effect; inactive = no such curve, though single readings can be large or run the other way. Potencies beside an inconclusive call are fits to weak or partial responses and may not hold up.

Test: qHTS Assay for NPC1 Promoter Activators; also: nearly all actives have a fitted effect of over 60% in size;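 as to activation: reporter is driven by a mutant NPC1 promoter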
Conditions: Huh7 NPC1 promoter luciferase reporter, 24 h; series mostly up to 9.22 µM
Outline: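 Compounds in DMSO were transferred onto Huh7 NPC1-luciferase reporter cells pre-incubated 2 h; after 24 h at 37 °C, Amplite reagent was dispensed and luminescence recorded 10 min later.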
Potency is read from the fitted curve at half-maximal effect; tags tell the direction and shape of the fitted curve.

Potency, inconclusive:
Fc1cc(Cl)c(OCc2noc(-c3ccsc3)n2)c(Cl)c1 1.78 µM [activator, partial curve], CCc1c(C(=O)Nc2ccc(C)c(C)c2)[nH]c(C)c1C(C)=O 5.62 µM [activator, single point], Cc1cnc(NC(=O)c2sc(Nc3ccccc3)nc2N)o1 3.16 µM [activator, partial curve], CN(C)c1ccc(/C=C(/C#N)C(=O)NCc2ccccc2)o1 5.62 µM [activator, single point], O=C(Nc1nc(-c2ccc(Cl)s2)cs1)c1cccs1 3.16 µM [activator, single point], O=S(=O)(Nc1ccc2nc(N3CCOCC3)sc2c1)c1ccccc1 2.51 µM [activator, partial curve], COc1ccc(C(=O)COc2ccccc2N2C(=O)C3C4C=CC(C4)C3C2=O)cc1 (stereo not drawn) 4.47 µM [activator, single point], O=C(Nc1ccc(F)cc1F)c1noc2c1CCC2 2.82 µM [activator, partial curve], O=C(Nc1ccc(NC(=O)c2cccs2)cc1)c1cccs1 1.58 µM [activator, partial curve], COc1ccc(NC(=O)c2ccccc2NC(=O)CSc2ccccc2)cc1 3.55 µM [activator, single point], COc1cc(/C=N/Nc2ccccn2)ccc1OCC(C)C 3.98 µM [activator, partial curve], CC(=O)Cc1nsc(Nc2ccc(Cl)cc2)n1 3.55 µM [activator, single point], Cc1cc2nc(-c3cccnc3SCC(=O)NC3CC3)[nH]c2cc1C 3.98 µM [activator, partial curve], COc1ccc(-n2ncc3c(SCC(=O)NNC(C)=O)ncnc32)cc1 2.24 µM [activator, partial curve], COC(=O)c1ccc(-c2nc3ccc(C)cc3o2)cc1 0.0891 µM [activator, full curve, poor fit], CCn1cc(Cl)c(C(=O)Nc2nccs2)n1 4.47 µM [activator, partial curve], CCCc1nn(C)c(C(=O)Nc2ccc3ccccc3c2)c1Cl 3.16 µM [activator, partial curve], O=C(COC(=O)c1n[nH]c2ccccc12)Nc1ccccc1 5.62 µM [activator, single point], Cc1noc(C)c1C(=O)Nc1nc(-c2cc(F)ccc2F)cs1 3.16 µM [activator, single point], Cc1ccc(C)c(NC(=O)c2cc(-c3cc(C)c(C)cc3O)n[nH]2)c1 3.55 µM [activator, partial curve], Cn1cc([N+](=O)[O-])c(C(=O)N/N=C/c2ccncc2)n1 3.55 µM [activator, single point], Fc1cccc(Cl)c1Cc1noc(/C=C/c2ccccc2)n1 5.62 µM [activator, single point], CCCn1nnc2sc3c(c2c1=O)CCC(C)C3 (stereo not drawn) 4.47 µM [activator, single point], COc1ccc2[nH]c(-c3ccc(C)cc3)cc(=O)c2c1 3.98 µM [activator, single point], Cc1ccc(NC(=O)c2cnccn2)c(Br)c1 5.62 µM [activator, single point], Cn1c(=O)c(/C=C/c2ccccc2)nc2ccccc21 4.47 µM [activator, single point], Cc1ccnc(NC(=O)c2ccc(OCc3c(C)noc3C)cc2)c1 5.62 µM [activator, single point], Cc1ccc(NC(=O)c2ccc(Oc3ncccn3)cc2)cc1 5.62 µM [activator, single point], N/C(=N\OCc1ccccc1)c1nonc1N 3.55 µM [activator, partial curve], Cn1cc([N+](=O)[O-])c(C(=O)Nc2ccc3c(c2)OCCO3)n1 3.55 µM [activator, single point], Cc1ccc(-c2nnc(SCC(=O)N3CCCC3)o2)cc1C 3.16 µM [activator, single point], CCCCCC(=O)N/N=C(\C)c1ccc(NC(=O)c2ccco2)cc1 3.55 µM [activator, single point], NC(=O)c1ccc2nc(NC(=O)c3ccc(N)cc3)sc2c1 2.24 µM [activator, partial curve], Cc1ccc(Nc2nnc(SCC(=O)NCCN3C(=O)CSC3=O)s2)cc1C 3.98 µM [activator, single point], Cc1ccc(/C=N/N=C/c2ccc(C)cc2)cc1 3.16 µM [activator, single point], CCc1ccc(/C=C2/SC(=S)NC2=O)cc1 10.3 µM [activator, partial curve], COc1cc(Cl)cc(/C=C/c2ccc3cccc(O)c3n2)c1OC 5.62 µM [activator, single point], O=C(c1cc2ccccc2oc1=O)N(Cc1ccccc1)C1CCS(=O)(=O)C1 (stereo not drawn) 3.55 µM [activator, single point], O=C(NCCCn1ccnc1)c1cc(-c2ccccc2)on1 3.55 µM [activator, single point], CCOC(=O)Cc1csc(N/N=C\c2ccc(N(C)C)cc2)n1 2.51 µM [activator, partial curve], c1ccc2nc(-c3nc4ccccc4o3)ccc2c1 3.98 µM [activator, partial curve], CC(O)CNC(=O)C1CCN(Cc2ccc(OCc3ccccc3)cc2)CC1 (stereo not drawn) 5.62 µM [activator, single point], Cc1occc1C(=O)O/N=C(\N)c1ccc(Cl)cc1 3.16 µM [activator, single point]

Potency, active:
CN1CCN(C(=O)c2cccc(COc3cc(Cl)ccc3Cl)c2)CC1 3.16 µM, CC(C)c1ccc(NC(=O)c2cccc(Br)c2)cc1 1.41 µM, O=C(COc1ccc(Cl)cc1Cl)Nc1ccc(Cl)cn1 0.447 µM, COc1ccc(CN2C(=O)C(C)S/C2=N/N=C/c2ccco2)cc1 (stereo not drawn) 3.16 µM, CCOc1ccc(NC(=O)c2nsc(Cl)c2Cl)cc1 2.24 µM, COc1ccc(NC(=O)c2ccccc2)cc1 3.55 µM, Cc1cc(C)c2c(-n3cccc3)c(C(=O)O)sc2n1 1 µM, NC(=O)C1CCN(c2nc(-c3ccc4c(c3)OCCO4)cs2)CC1 1.41 µM, CN(C(=O)c1cc2c(=O)n3ccccc3nc2n1C)C1CCCCC1 2 µM, N/C(=N\OC(=O)c1ccc(Cl)cc1Cl)c1ccccn1 0.316 µM, Fc1ccc(CSc2ccc(-c3ccco3)nn2)cc1 3.16 µM, CCOC(=O)c1cn[nH]c1NC(=S)Nc1ccc(Cl)cc1 0.316 µM, COc1ccccc1C(=O)Nc1nc2ccccc2s1 2.24 µM, O=C(N=C1N=C2C=CC(Br)=CN2Cc2ccccc21)c1ccc([N+](=O)[O-])cc1[N+](=O)[O-] 3.55 µM, CCOC(=O)c1c(C)nc(C)c(C(=O)OCC)c1-c1ccccc1 3.98 µM

Potency, inactive:
COc1cccc(-c2cc(C(=O)Nc3ccc([N+](=O)[O-])cn3)c3ccccc3n2)c1, CCOC(=O)N1CCN(S(=O)(=O)c2ccc(C(=O)Nc3nc4ccccc4s3)cc2)CC1, O=C(CSc1ncccc1C(=O)O)c1cccc(C(F)(F)F)c1, Cc1cc(C)n(CCC(=O)N/N=C/c2ccc(O)cc2)n1, Nc1nnc(CC(=O)N/N=C/c2ccccc2OCc2ccccc2F)s1, Cc1ccc(/C=C/c2nnc(-c3cccc(C)c3)o2)cc1, Cc1cc(C(=O)N/N=C/c2ccc(C)o2)c2ccccc2n1, CS(=O)(=O)N1CCC(C(=O)Nc2cc(Cl)c(Cl)cc2Cl)CC1, CC1CCN(C(=O)COC(=O)C23CC4CC(CC(O)(C4)C2)C3)CC1, CCn1c(SCC(=O)N2CCCC2)nnc1-c1ccc(N)cc1, Cc1ccn2c(Nc3ccc4c(c3)OCO4)c(-c3ccccn3)nc2c1, Cc1cc(NC(=O)CC(C)C)c(=O)n(Cc2ccccc2F)c1, O=C(NNC(=O)c1ccc(Br)cc1)c1ccncc1, O=C(c1ccncc1)N1N=C(c2ccc(Cl)cc2)CC1c1ccccc1O (stereo not drawn), CNC(=O)C(C)Sc1ccc(S(=O)(=O)N2CCOCC2)cn1 (stereo not drawn), NC(=O)C1=CN(Cc2ccc(Cl)cc2)CCC1C(F)(F)F (stereo not drawn), COc1ccccc1/C=C/CN1CCC(Oc2ccc(C(=O)N3CCCC3)cc2)CC1, COc1ccc(/C=C2\SC(=S)N(C(C(=O)O)c3ccccc3)C2=O)c(OC)c1 (stereo not drawn), O=C(c1ccccc1F)N(Cc1ccc(F)cc1)C1CCS(=O)(=O)C1 (stereo not drawn), CC(C)[C@H](NC(=O)c1ccco1)C(=O)OCC(=O)Nc1ccccc1OC(F)F
